Test results taken from article PMC10320511.
No constants are given. Whether binding was seen depends on the method and setting. In cells and extracts the contact can be indirect. Some binding calls cover weakened binding; strength is not graded here. Tags and fused reporters may be left off the sequences shown.

Assays:
[1] = molecular target: T1, FRQ E801A, D802A, E805A, E809A, V5H6-tagged (Neurospora crassa) (UniProt P19970); test: co-IP; V5H6-tagged FRQ (wild type or mutant) pulled down with V5 agarose from Neurospora lysate (cultures in the light, 25 °C); 50 mM Hepes pH 7.4, 137 mM NaCl, 10% glycerol, 0.4% NP-40; 4 °C, 2 h; Western blot with FRQ, FRH, WC-1 and WC-2 antibodies
T1 sequence: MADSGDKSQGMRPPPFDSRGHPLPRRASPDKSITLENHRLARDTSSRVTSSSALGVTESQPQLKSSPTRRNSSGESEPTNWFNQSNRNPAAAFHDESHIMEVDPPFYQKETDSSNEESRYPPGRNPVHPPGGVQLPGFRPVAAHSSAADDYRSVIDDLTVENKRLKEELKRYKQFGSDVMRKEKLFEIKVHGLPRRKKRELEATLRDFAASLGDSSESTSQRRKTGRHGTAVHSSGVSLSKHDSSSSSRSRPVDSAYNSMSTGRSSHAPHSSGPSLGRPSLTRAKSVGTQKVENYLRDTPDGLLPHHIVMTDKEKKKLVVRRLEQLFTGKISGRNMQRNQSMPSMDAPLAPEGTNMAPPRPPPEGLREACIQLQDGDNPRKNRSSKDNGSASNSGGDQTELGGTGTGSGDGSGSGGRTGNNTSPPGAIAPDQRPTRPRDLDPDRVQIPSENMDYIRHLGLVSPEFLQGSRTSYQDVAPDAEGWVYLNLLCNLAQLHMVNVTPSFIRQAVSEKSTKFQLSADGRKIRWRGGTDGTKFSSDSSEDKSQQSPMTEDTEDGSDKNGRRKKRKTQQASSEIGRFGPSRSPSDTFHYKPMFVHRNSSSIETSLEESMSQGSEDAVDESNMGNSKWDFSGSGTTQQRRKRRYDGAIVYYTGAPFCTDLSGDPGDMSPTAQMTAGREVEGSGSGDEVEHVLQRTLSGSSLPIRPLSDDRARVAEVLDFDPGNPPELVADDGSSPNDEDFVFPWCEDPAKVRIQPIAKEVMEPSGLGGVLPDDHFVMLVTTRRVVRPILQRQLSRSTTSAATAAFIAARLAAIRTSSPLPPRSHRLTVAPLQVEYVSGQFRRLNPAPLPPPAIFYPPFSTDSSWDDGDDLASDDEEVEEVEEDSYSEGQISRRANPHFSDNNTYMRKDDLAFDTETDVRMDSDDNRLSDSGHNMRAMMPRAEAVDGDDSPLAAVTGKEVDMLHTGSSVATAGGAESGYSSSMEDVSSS

[2] = molecular target: T2, FRQ Δ435–481, V5H6-tagged (Neurospora crassa) (UniProt P19970); test: as above
T2 sequence: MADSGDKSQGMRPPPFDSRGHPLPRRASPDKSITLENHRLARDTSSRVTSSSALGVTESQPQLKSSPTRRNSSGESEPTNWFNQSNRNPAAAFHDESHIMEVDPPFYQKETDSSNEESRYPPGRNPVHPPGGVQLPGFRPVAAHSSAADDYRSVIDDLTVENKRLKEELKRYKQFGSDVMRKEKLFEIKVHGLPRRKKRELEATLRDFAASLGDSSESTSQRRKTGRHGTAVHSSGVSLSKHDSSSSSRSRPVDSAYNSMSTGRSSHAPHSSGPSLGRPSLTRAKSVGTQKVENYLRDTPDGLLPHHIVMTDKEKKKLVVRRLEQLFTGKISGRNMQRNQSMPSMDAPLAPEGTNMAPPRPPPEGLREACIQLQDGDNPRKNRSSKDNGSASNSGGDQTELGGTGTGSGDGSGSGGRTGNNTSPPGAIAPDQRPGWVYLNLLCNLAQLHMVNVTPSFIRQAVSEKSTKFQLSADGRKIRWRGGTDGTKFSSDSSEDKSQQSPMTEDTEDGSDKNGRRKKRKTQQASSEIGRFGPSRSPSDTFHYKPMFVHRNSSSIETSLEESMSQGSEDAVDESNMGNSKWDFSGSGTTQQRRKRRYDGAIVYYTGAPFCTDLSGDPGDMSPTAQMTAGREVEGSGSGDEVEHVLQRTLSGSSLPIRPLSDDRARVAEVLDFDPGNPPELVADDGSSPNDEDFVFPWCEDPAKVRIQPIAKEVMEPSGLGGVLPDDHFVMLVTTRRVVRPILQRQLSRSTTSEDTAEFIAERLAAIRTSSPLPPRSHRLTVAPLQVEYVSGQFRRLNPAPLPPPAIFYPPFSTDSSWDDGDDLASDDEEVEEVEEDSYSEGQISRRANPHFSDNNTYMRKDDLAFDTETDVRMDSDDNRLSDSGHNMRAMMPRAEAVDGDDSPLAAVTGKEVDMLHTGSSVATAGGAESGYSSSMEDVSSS

- binding [1]: binds
- binding [2]: binds
B1: White Collar-2 (WC-2) (protein, UniProt P78714 1-530)
chain: MSHGQPPPGSSMYGFGAMGMGSGMGSGMGSGMGTGMGTGMGTGMSASQMTSDPQDMMSLLDTSVFPGFDGMSMSLDVGDSMSNPFTPVSVPPPLPAGNAGPSHVGVCGGHGAPDQLFSPDDLIATSMSSAGPMIATPTTTTSGPSGGPSSGGGSTLTEFTKRRNWPAKVVEELQDWEHILDANGRIKHVSPSVEPLTGYKPPEIIDLFLRDLIHPDDVGVFTAELNEAIATGSQLRLFYRFRKKDGNWTIFETVGHAHIAAAKFAPNPQNQSPFCQAVFMMARPYPTKNAGLLDSFLEHKIENERLKRRIAELRREEQEEQEESHRTWRMSQEGRSDVTPSDDTATQMGMTPFYIPMNAQADVMMPPPSQPASSLNIALTRENLEGIAGSRPDSIREKMLRYEGNHADTIEMLTGLKYQEGERSHGITTGNASPTLIKGDAGIAIPLDRDPRTGEKKKKIKVAEEYVCTDCGTLDSPEWRKGPSGPKTLCNACGLRWAKKEKKKNANNNNNGGGIGGHNDIHTPMGDHMG
